Laboratory results reported in the supplement of paper PMC3334620.
Whole data set: some 33,000 sequences, median “E-score (-0.5 to 0.5)” near -0.017, cut for the highest 2% near 0.3. The list shows a part of the results.

The sequences below were run against T1, Sut1 (UniProt P53032) (assay: PBM E-score (8-mer binding enrichment) (E-score (-0.5 to 0.5)); higher = stronger / more preferred TF binding; most listed sequences are background and not binding sites). Conditions: protein concentration: 200 nM; construct: GST-full length.
T1 sequence: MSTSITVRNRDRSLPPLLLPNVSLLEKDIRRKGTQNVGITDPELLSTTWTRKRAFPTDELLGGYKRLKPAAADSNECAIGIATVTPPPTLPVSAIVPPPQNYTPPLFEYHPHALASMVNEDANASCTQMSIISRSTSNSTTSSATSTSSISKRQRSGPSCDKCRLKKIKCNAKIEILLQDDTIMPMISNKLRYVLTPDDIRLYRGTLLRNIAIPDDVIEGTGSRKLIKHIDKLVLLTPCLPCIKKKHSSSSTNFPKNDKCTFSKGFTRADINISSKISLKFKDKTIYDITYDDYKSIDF
Outline: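 PURExpress in vitro transcription/translation supplied GST-tagged yeast transcription factors, either full-length or DNA-binding domain. Applied at about 100-200 nM to universal all-10-mer Agilent arrays double-stranded by primer extension, the bound protein was detected with fluorescent anti-GST. E-scores, modified Wilcoxon-Mann-Whitney statistics, were given by the Universal PBM Analysis Suite to ungapped eight-base words pooled with their reverse complements after masliner normalisation.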

Sequence	PBM E-score
AAACGGAG	0.37
CTGTTATA	0.202
AAGCTATT	0.0716
ACGACGAG	-0.163
CAACGGGC	0.0172
CCGGAGCG	0.234
GCCAACGA	-0.0291
AAATTTAG	0.254
AACAAACA	0.256
CCTGCGTC	-0.184
GATGTTCA	-0.191
ACAAGTTG	-0.0358
GACGGTCC	-0.0948
CGCCTCCA	-0.0139
ATCACTGC	-0.0751
GTCTGTAA	0.0806
CCTCCCGA	-0.289
CTACCCGC	-0.124
TCACTGGA	0.0336
GAACGATC	0.00632
CATTCTGA	0.00217
GGATGGAC	-0.139
ACAGTTCA	-0.0491
CACCCTAA	-0.167
GCGCTCAA	0.102

Sequence	PBM E-score
ACCTACAA	0.0492
ATGGTAAG	-0.151
GAAATTCC	0.0935
CTCGACTC	0.0469
CCCATTGC	-0.113
GCGGACGC	-0.28
TATCAGGA	0.0818
ACAGGTAC	-0.0274
AACGCGCC	-0.0943
AAATAGTT	0.19
CAAACATC	0.127
GCAGGCAA	0.0353
CTATCTAA	0.0501
CGATGCAC	-0.151
CAACCGCG	0.149
AACAAGAT	0.106
AGTCCAGG	-0.147
AGGGTTAC	-0.28
CGGCCCCG	-0.0814
AAATCAAT	0.144
CTGAAAAA	0.0209
AGAACGGG	0.0594
ACACCGCC	-0.0681
ACAACGTA	-0.0745
CCTTATTC	-0.197

Sequence	PBM E-score
CACTCTAG	-0.0109
CCCGGAGG	0.0148
AGGGTTTC	-0.0383
CGGTTCCA	0.049
GCTGTCAC	-0.0802
GATCACAC	-0.0906
ACCCCGTC	-0.139
ACTTAGGC	-0.102
CTGCCAAC	-0.25
ACCACATG	-0.00856
CCGGAACA	0.304
GCTCTGAC	-0.202
GGCCCAAC	-0.0886
TAAATGAA	0.109
AAAGTCAA	0.157
ACGGCCAG	-0.0132
AGTTAAAC	0.2
AACCATGC	0.00747
AGAATGCA	0.0147
CGGCATGC	-0.0106
GTTAGCTA	-0.237
ATCAAATG	0.135
GCAGACAC	-0.0447
GTTAAGCA	0.0986
CCGGAATA	0.294

Sequence	PBM E-score
AGGTATAA	0.129
CGTCGTGC	0.00804
GCGGGGAC	-0.134
GTGGTTAA	0.0775
AATGTAAA	0.252
ACTAGGGG	-0.237
TGCCTACA	-0.15
GAGCACGA	0.107
CGCGCTAG	0.0253
ACTAATCG	0.182
GCCATACA	-0.0899
GATGATCA	-0.0348
AAGTGTCG	0.0186
CGTCGGTC	0.148
TACTTCCA	0.0469
ATCCACAC	-0.0894
CCCCTTGA	-0.0171
TAGGTTCA	-0.00817
GGCCGTAA	0.00876
ATAGGAGA	-0.366
AGCTAGAT	-0.0194
AATGCGGA	0.297
AGACGATA	0.156
GGGCTGTA	-0.182
TACCGGTA	0.0972

Sequence	PBM E-score
ATGAGAGA	0.101
ATGTGACC	0.057
AACCAAGT	0.0833
CTGAGTCA	-0.147
CCATATGG	-0.208
AAGCAGGA	0.00333
TCTGCCAA	-0.159
GGCCTTAA	-0.0238
CGACTGGA	-0.033
GGTCCCAA	-0.219
CATACCGA	-0.128
CCCCCAGC	-0.261
AGTCTGCC	-0.188
AACCGAAA	0.143
AAGACTTA	-0.0452
AGACCTGC	-0.305
AATCATCT	-0.104
CCTGGTCA	-0.307
CACGCATG	-0.18
AGATCGTG	-0.0866
AAGGCCCA	-0.0781
TTCTGCAA	-0.0309
ATACGCAT	0.0153
ATATGCTC	0.13
ACCTATCA	0.0988

Sequence	PBM E-score
CTATACGA	0.158
CACGGCGG	-0.13
AAGATAAG	0.0391
ACCTAGTA	-0.132
ATGAGTTA	0.0913
CACCTACG	-0.139
AGCTGCAT	-0.153
CGCGGGTA	-0.205
AACGACTG	-0.0246
TTCCAAAA	0.0792
ATACTAGA	0.136
AGTAGGAT	0.0781
AAATTTCC	0.167
GAGGAAGA	0.141
CAGCAAGG	-0.198
ACAAATGT	0.21
GTTCCATA	-0.117
CAGTGGCA	-0.208
CAGAATTA	-0.0304
AGGGATGA	0.029
ATGGCCCC	-0.273
GCGATACA	-0.0831
CGAAGTAA	0.132
ACATCTGA	-0.106
ATATCAAT	0.11

Sequence	PBM E-score
CCGCGCTA	-0.00771
CTAGATAA	0.149
AATTGCAT	0.151
ATCCTCTG	-0.125
ATACGGCA	0.0144
ACGTGTAT	-0.0421
AACACTAG	0.026
GGTTTAGA	0.0158
AAGATCCG	0.00271
ACTGTGCC	-0.0699
CTAACGAC	-0.0288
GGACAACC	0.0501
CGAGGCCC	-0.0796
CCCTGAGA	-0.392
CCAACGTA	-0.207
ATCCATGC	-0.139
TACGCAGA	0.0179
TGAAACAA	0.264
AACCTCCG	0.121
TAGTATAA	0.251
GCGTCCCA	-0.205
AAAGCCCT	-0.215
